61 compounds from the supplement of paper PMC9446081 can be followed below.

The whole screen tested about 39,000 compounds, of which about 220 (0.56%) showed activity. Some of the results follow.
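Further: static incubation at 37 °C against the wild-type strain, values averaged over two biological replicates.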

The subject of this test is Escherichia coli K-12 BW25113. Nature of the test: relative growth (OD600 normalised to plate interquartile mean) (fraction); higher = less growth inhibition, active = 0.2 or less. The conditions noted are these: 50 µM; LB; incubation time: overnight (16-24 h).
As for `COc1ccccc1OCCNCC(O)COc1cccc2[nH]c3ccccc3c12` (stereo unspecified), the relative growth was inactive: 0.8. The figure for `O=C(Cc1ccncc1)Nc1ccc2c(c1)[C@@H]1C[C@@H](CC(=O)N3CCc4ccccc4C3)O[C@H](CO)[C@@H]1O2` is inactive: 0.988; for `C[C@H]1CCCCO[C@H](CN(C)C(=O)Nc2ccccc2)[C@@H](C)CN([C@@H](C)CO)C(=O)c2cc(NC(=O)Nc3ccc(F)cc3)ccc2O1` it is inactive: 0.969. The figure for `CS(=O)(=O)N1C[C@H]2CN(Cc3ccncc3)C(=O)[C@@H]2C1` is inactive: 0.995. The figure for `C[C@H](CO)N1C[C@H](C)[C@@H](CN(C)Cc2ccc(Cl)c(Cl)c2)Oc2ccc(NC(=O)C3CCCCC3)cc2CC1=O` is inactive: 0.97. On to `COc1ccc(S(=O)(=O)Nc2ccc3c(c2)CC(=O)N([C@@H](C)CO)C[C@H](C)[C@@H](CN(C)C)O3)cc1`, for which the relative growth is inactive: 1. As for `COc1ccc(CN(C)C[C@@H]2OCCCC[C@H](C)Oc3ccc(NC(=O)Nc4ccc(C(F)(F)F)cc4)cc3C(=O)N([C@@H](C)CO)C[C@H]2C)cc1`, the relative growth is inactive: 0.97. For `C[C@@H]1CN([C@@H](C)CO)C(=O)c2cc(NC(=O)c3ccccc3)ccc2O[C@@H](C)CCCCO[C@@H]1CN(C)S(=O)(=O)c1ccc(Cl)cc1`, the relative growth was inactive: 1.02. The figure for `CC(=O)N(O)CCC[C@H]1NC(=O)CNC(=O)CNC(=O)CNC(=O)[C@@H](CCCN(O)C(C)=O)NC(=O)[C@@H](CCCN(O)C(C)=O)NC1=O` is inactive: 0.966; for `CC(C)NC(=O)N[C@@H]1C=C[C@@H](CC(=O)NCCN2CCCC2)O[C@H]1CO` it is inactive: 0.998. As to `COc1ccc(C(C)=O)c(O)c1`, the relative growth is inactive: 0.861.

As for `COc1ccc([N+](=O)[O-])cc1CNCCO`, the relative growth was inactive: 1.03.

As to `O=C(C[C@H]1C=C[C@H](NC(=O)CN2CCOCC2)[C@H](CO)O1)NC1CCC1`, the relative growth was inactive: 0.997. Take `C[C@@H]1CN([C@H](C)CO)C(=O)c2cc(NC(=O)CCCN(C)C)ccc2O[C@H]1CN(C)C(=O)Nc1ccccc1`: the relative growth is inactive: 0.977. For the compound `CC(C)NC(=O)N(C)C[C@@H]1Oc2ccc(NC(=O)Cn3cnnn3)cc2C(=O)N([C@@H](C)CO)C[C@H]1C`, the relative growth was inactive: 0.98.

`Cn1c(=O)c2c(nc(N3CCCCC3)n2CCN)n(C)c1=O`: the relative growth was inactive: 0.937. The value for `C[C@H]1CCCCO[C@@H](CN(C)C(=O)Nc2ccccc2)[C@@H](C)CN([C@@H](C)CO)C(=O)c2cc(NS(=O)(=O)c3cccs3)ccc2O1` was inactive: 0.991. The value for `COc1ccc(-n2nc(C(N)=O)c3c2C(=O)N(c2ccc(N4CCCCC4=O)cc2)CC3)cc1` was inactive: 1.05. The figure for `COCC#Cc1ccc2c(c1)O[C@H](CN(C)S(=O)(=O)c1ccc(OC)cc1)[C@@H](C)CN([C@H](C)CO)S2(=O)=O` is inactive: 1.01. Turning to `O=C(C[C@@H]1C[C@H]2c3cc(NC(=O)c4cccnc4)ccc3O[C@H]2[C@@H](CO)O1)NCc1cc(F)ccc1F`, the relative growth is inactive: 0.979. The value for `COc1ccc(S(=O)(=O)Nc2ccc3c(c2)CC(=O)N([C@@H](C)CO)C[C@H](C)[C@@H](CN(C)S(=O)(=O)c2ccccc2)O3)cc1` was inactive: 0.996; that for `COc1nn(C)cc1C(=O)NC1=NCCS1` was inactive: 1. The value for `C[C@@H]1CN([C@@H](C)CO)C(=O)c2cc(NC(=O)c3ccncc3)ccc2O[C@@H](C)CCCCO[C@H]1CN(C)C(=O)Nc1ccccc1` was inactive: 0.979. The value for `COc1ccc([Si](C)(C)[C@H]2[C@H](CC(=O)N3Cc4ccccc4C[C@H]3CO)O[C@@]3(C(=O)N(C)c4c(Br)cc(C)cc43)[C@@H]2C)cc1` was inactive: 1.01; that for `Cc1ccc(S(=O)(=O)N(C)C[C@@H]2Oc3ccc(NC(=O)Cn4cnnn4)cc3C(=O)N([C@@H](C)CO)C[C@@H]2C)cc1` was inactive: 0.964. On to `CO[C@@H]1CN(C)C(=O)c2ccc(NS(=O)(=O)CC(F)(F)F)cc2OC[C@@H](C)N(Cc2nccs2)C[C@H]1C`, for which the relative growth is inactive: 1.03. With `C[C@@H]1CN([C@@H](C)CO)C(=O)Cc2cc(NC(=O)Nc3ccc(F)cc3)ccc2O[C@H]1CN(C)S(=O)(=O)c1cn(C)cn1`, the relative growth is inactive: 0.979.

Turning to `COc1ccc(CN(C)C[C@H]2OCCCC[C@H](C)Oc3ccc(NC(=O)c4ccncc4)cc3C(=O)N([C@@H](C)CO)C[C@@H]2C)cc1`, the relative growth was inactive: 0.968.

On to `C[C@@H]1CN([C@H](C)CO)S(=O)(=O)c2ccc(C#CCN(C)C)cc2O[C@@H]1CN(C)Cc1ccc2c(c1)OCO2`, for which the relative growth was inactive: 0.994.

As to `COc1cccc(S(=O)(=O)N2C[C@@H](O)COC[C@@H]3O[C@H](CC(=O)N4CCN(c5ccccc5)CC4)CC[C@H]32)c1`, the relative growth is inactive: 1.01.

Turning to `C[C@H](CO)N1C[C@H](C)[C@H](CN(C)S(=O)(=O)c2cccs2)Oc2ccc(NC(=O)Cc3ccccc3)cc2C1=O`, the relative growth was inactive: 0.986.

For the compound `CC(=O)CCc1ccc(OC(C)=O)cc1`, the relative growth was inactive: 0.898. The figure for `C=CCC[C@@H](Cc1ccc(F)cc1)C(=O)OC[C@@H](NC(=O)[C@@H](CC=C)CC(=O)N(CCO)Cc1ccccc1)C(C)(C)C` is inactive: 1.05.

Regarding `CN(C)CC(=O)N[C@H]1CC[C@@H](CC(=O)NCCN2CCCCC2)O[C@@H]1CO`, the relative growth was inactive: 0.995. The figure for `O=C1C=CC(O)(/C=C/C(=O)O[C@@H]2[C@@H](O)[C@H](Oc3ccc(O)cc3)O[C@H](CO)[C@H]2O)C=C1` is inactive: 1.01; for `C[C@H]1CCCCO[C@@H](CN(C)CC2CCCCC2)[C@@H](C)CN([C@@H](C)CO)C(=O)c2cc(NS(=O)(=O)c3ccc(F)cc3)ccc2O1` it is inactive: 0.987. The figure for `C[C@@H]1CCCCO[C@H](CN(C)C(=O)Nc2ccc(C(F)(F)F)cc2)[C@H](C)CN([C@@H](C)CO)C(=O)c2cc(NS(=O)(=O)c3cn(C)cn3)ccc2O1` is inactive: 0.864.

Take `C[C@H](CO)N1C[C@H](C)[C@H](CN(C)S(=O)(=O)c2cn(C)cn2)Oc2c(NS(=O)(=O)c3cccs3)cccc2C1=O`: the relative growth is inactive: 1. The figure for `CC(=O)Oc1cccc(C(=O)O)c1OC(C)=O` is inactive: 1.08. The figure for `COc1cc2c(cc1OC)CN(C[C@H]1C[C@H](c3ccccc3)O[C@H](c3ccc(NC(=O)CCCCCCC(=O)NO)cc3)O1)CC2` is inactive: 0.996; for `COc1ncc(-c2ccc3c(Nc4cc(Oc5cc(F)cc(F)c5)cc(C(=O)O)c4)c(S(=O)(=O)NC4CC4)cnc3c2)c(OC)n1` it is inactive: 1.02; for `C[C@@H]1CN([C@H](C)CO)C(=O)c2cccc(NC(=O)C3CCOCC3)c2O[C@H]1CN(C)C(=O)Nc1ccc2c(c1)OCO2` it is inactive: 1.04. `C[C@@H]1CN([C@H](C)CO)S(=O)(=O)c2ccc(C#CC3CCCC3)cc2O[C@@H]1CN(C)C(=O)Cc1ccncc1`: the relative growth is inactive: 0.974. On to `COc1ccc(S(=O)(=O)N(C)C[C@@H]2OCCCC[C@@H](C)Oc3ccc(NC(=O)Nc4ccc(C(F)(F)F)cc4)cc3C(=O)N([C@@H](C)CO)C[C@@H]2C)cc1`, for which the relative growth was inactive: 1.01. In the case of `COc1ccc(NC(=O)Nc2ccc3c(c2)C(=O)N([C@@H](C)CO)C[C@@H](C)[C@@H](CN(C)S(C)(=O)=O)O3)cc1`, the relative growth is inactive: 1.02. Turning to `CC(C)NC(=O)Nc1ccc2c(c1)C(=O)N([C@@H](C)CO)C[C@@H](C)[C@H](CN(C)C(=O)Nc1ccc(F)cc1)OCCCC[C@@H](C)O2`, the relative growth was inactive: 0.982. The figure for `COc1ccc(NC(=O)Nc2ccc3c(c2)C(=O)N([C@@H](C)CO)C[C@H](C)[C@@H](CN(C)C(=O)Nc2ccc(C(F)(F)F)cc2)OCCCC[C@H](C)O3)cc1` is inactive: 1.03.

Take `COc1ccc(NC(=O)N(C)C[C@@H]2Oc3ncc(C#C[C@@H](C)O)cc3C(=O)N([C@H](C)CO)C[C@@H]2C)cc1`: the relative growth was inactive: 1. The value for `C[C@@H]1CN([C@H](C)CO)C(=O)c2cc(NC(=O)NC3CCCCC3)ccc2O[C@@H](C)CCCCO[C@H]1CN(C)S(=O)(=O)c1ccc(Cl)cc1` was inactive: 0.975. The figure for `C[C@@H]1CN([C@@H](C)CO)C(=O)Cc2cc(NC(=O)Cc3ccccc3)ccc2O[C@H]1CN(C)C(=O)Nc1cccc2ccccc12` is inactive: 0.988; for `C[C@H]1CN([C@@H](C)CO)C(=O)c2cc(NC(=O)c3ccncc3)ccc2O[C@H]1CN(C)Cc1ccncc1` it is inactive: 1. On to `C[C@H](CO)N1C[C@H](C)[C@H](CN(C)C(=O)Nc2ccc(F)cc2)OCCCC[C@H](C)Oc2ccc(NC(=O)Nc3ccc(F)cc3)cc2C1=O`, for which the relative growth was inactive: 1.06. In the case of `O=C(O)[C@@H]1[C@@H]2CC[C@@H](C2)[C@H]1C(=O)O`, the relative growth was inactive: 1. The value for `C[C@@H]1CCCCO[C@H](CN(C)C(=O)NC2CCCCC2)[C@@H](C)CN([C@H](C)CO)C(=O)c2cc(NC(=O)c3ccccc3)ccc2O1` was inactive: 0.981; that for `CC(C)CC(=O)N1CCC(N)CC1` was inactive: 0.972. Turning to `Cc1noc(C)c1S(=O)(=O)Nc1ccc2c(c1)C(=O)N([C@H](C)CO)C[C@@H](C)[C@H](CN(C)S(=O)(=O)c1ccc(Cl)cc1)O2`, the relative growth is inactive: 1.

As to `Cc1ccc(C(=O)CCNc2ccc3c(c2)oc2ccccc23)o1`, the relative growth is inactive: 0.993.

`CCCCc1oc2ccc(NS(C)(=O)=O)cc2c1C(=O)c1ccc(OCCCN(CCCC)CCCC)cc1`: the relative growth is inactive: 1.12. The value for `COc1ccc(NC(=O)Nc2ccc3c(c2)C(=O)N([C@@H](C)CO)C[C@H](C)[C@H](CN(C)S(=O)(=O)c2cccs2)OCCCC[C@H](C)O3)cc1` was inactive: 1.01. In the case of `Cc1noc(C)c1NC(=O)Nc1ccc2c(c1)C(=O)N([C@@H](C)CO)C[C@H](C)[C@@H](CN(C)C(=O)C1CCCCC1)OCCCC[C@H](C)O2`, the relative growth is inactive: 0.989. The value for `C[C@H]1CN([C@@H](C)CO)C(=O)c2cc(NC(=O)Cn3cnnn3)ccc2O[C@H]1CN(C)C(=O)Nc1ccc2c(c1)OCO2` was inactive: 1.
